The campaign covered roughly 310,000 compounds. About 14,000 (4.5%) showed an effect of 50% or more. The effect is printed as a negative number. Some of the results follow.
What follows are molecules tested against human ether-à-go-go-related gene (hERG) potassium channel (human, UniProt Q12809) (assay: primary screen, population patch clamp on CHO cells stably expressing hERG).
human ether-à-go-go-related gene (hERG) potassium channel, sequence (Q12809 whole entry, looked up): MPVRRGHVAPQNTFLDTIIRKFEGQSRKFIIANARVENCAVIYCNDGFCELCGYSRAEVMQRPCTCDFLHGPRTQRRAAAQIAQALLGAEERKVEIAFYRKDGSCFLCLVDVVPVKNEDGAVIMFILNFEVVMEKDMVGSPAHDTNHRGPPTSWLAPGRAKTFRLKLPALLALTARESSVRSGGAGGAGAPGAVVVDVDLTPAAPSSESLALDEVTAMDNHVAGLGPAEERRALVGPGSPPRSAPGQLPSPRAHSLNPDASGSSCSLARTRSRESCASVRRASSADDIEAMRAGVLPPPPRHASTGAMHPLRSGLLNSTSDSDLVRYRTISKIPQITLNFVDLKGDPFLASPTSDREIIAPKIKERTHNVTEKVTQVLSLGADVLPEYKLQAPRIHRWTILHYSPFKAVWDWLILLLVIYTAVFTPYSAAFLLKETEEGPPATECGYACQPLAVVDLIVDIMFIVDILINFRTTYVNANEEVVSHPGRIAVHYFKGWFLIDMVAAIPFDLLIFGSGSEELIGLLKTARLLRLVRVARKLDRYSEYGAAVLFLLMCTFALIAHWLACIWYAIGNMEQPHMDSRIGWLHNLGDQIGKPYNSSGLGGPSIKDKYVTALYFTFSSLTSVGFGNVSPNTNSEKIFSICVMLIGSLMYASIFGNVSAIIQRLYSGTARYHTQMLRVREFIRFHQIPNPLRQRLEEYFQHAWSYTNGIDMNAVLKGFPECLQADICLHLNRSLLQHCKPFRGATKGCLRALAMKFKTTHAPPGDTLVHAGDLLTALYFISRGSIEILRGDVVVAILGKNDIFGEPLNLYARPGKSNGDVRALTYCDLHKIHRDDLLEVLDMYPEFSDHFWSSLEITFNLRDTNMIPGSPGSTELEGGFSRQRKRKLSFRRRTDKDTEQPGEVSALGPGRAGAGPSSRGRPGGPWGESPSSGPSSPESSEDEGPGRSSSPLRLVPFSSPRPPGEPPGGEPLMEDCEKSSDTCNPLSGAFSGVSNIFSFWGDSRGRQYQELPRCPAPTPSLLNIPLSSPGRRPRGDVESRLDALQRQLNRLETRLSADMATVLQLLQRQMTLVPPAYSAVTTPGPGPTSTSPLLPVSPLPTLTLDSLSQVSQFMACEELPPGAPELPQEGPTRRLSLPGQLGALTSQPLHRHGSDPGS
For `CCOc1ncccc1C(=O)N1CCN(S(=O)(=O)c2cccs2)CC1`, the “hERG current change (%, negative = inhibition) at 10uM” value was 3.64%. `CCN(CC)C(=O)N1CCC(NC(=O)Cc2ccccc2)CC1` was tested, and the “hERG current change (%, negative = inhibition) at 10uM” value was -8.93%. For `Cc1cc(C)c(C#N)c(SCc2ccc3c(c2)OCO3)n1`, the “hERG current change (%, negative = inhibition) at 10uM” value was 1.92%. With `COc1cccc(NC(=O)CSc2nc3ccccc3nc2N2CCCC2)c1` the “hERG current change (%, negative = inhibition) at 10uM” value was -15.3%. For `CC1CN(C2=N/C(=C/c3ccc4c(c3)OCO4)C(=O)N2)CC(C)O1` (stereo not shown), the “hERG current change (%, negative = inhibition) at 10uM” value was 3.07%. `COc1ccccc1-c1cc(C(=O)Nc2sc3c(c2C#N)CCC(C)C3)c2ccccc2n1` (stereo not shown) was tested, and the “hERG current change (%, negative = inhibition) at 10uM” value was 10.5%. For `O=C(c1cnc2sccn2c1=O)N1CCCc2ccccc21`, the “hERG current change (%, negative = inhibition) at 10uM” value was 17.1%. In the case of `COC(=O)c1c(NS(C)(=O)=O)sc2c1CCCC2`, the “hERG current change (%, negative = inhibition) at 10uM” value was 0.0367%. With `CC(/C=C/c1ccccc1)=N\NC(=O)CNC(=O)c1ccccc1Cl` the “hERG current change (%, negative = inhibition) at 10uM” value was 7.15%. For `Cc1cc([N+](=O)[O-])nn1CCCC(=O)NCc1ccc(F)cc1`, the “hERG current change (%, negative = inhibition) at 10uM” value was -0.962%. `CCn1nnnc1SCC(=O)NC1CCCC1` was tested, and the “hERG current change (%, negative = inhibition) at 10uM” value was 19.8%. With `CCOc1ccc(S(=O)(=O)Nc2cccc(OC)c2)cc1` the “hERG current change (%, negative = inhibition) at 10uM” value was -25%. In the case of `O=C(CCc1ccccc1)Nc1ccccc1`, the “hERG current change (%, negative = inhibition) at 10uM” value was -2.56%. With `COc1ccccc1OCCSc1nc2ccccc2c(=O)[nH]1` the “hERG current change (%, negative = inhibition) at 10uM” value was -5.52%. In the case of `CC(=O)Cc1nsc(NC(=O)c2ccc(-c3ccc(Cl)c(Cl)c3)o2)n1`, the “hERG current change (%, negative = inhibition) at 10uM” value was -0.558%. `CC(=O)C1=C(C)Nc2ncnn2C1c1cccc(Br)c1` (stereo not shown) was tested, and the “hERG current change (%, negative = inhibition) at 10uM” value was -10.1%. `CC(C)CCNC(=O)C(=O)NCC1OCCCN1S(=O)(=O)c1cccs1` (stereo not shown) was tested, and the “hERG current change (%, negative = inhibition) at 10uM” value was 1.45%. For `Cc1ccc(/C=C/C(=O)O)cc1S(=O)(=O)Nc1ccccc1C(=O)O`, the “hERG current change (%, negative = inhibition) at 10uM” value was 22%. For `Cc1cccnc1CCNC(=O)CCc1nnc(-c2ccccc2)o1`, the “hERG current change (%, negative = inhibition) at 10uM” value was -4.37%. With `COc1ccc(OC)c(CNS(=O)(=O)c2cc(CN3C(=O)c4cccnc4C3=O)ccc2OC)c1` the “hERG current change (%, negative = inhibition) at 10uM” value was -18.6%. In the case of `COCCCNC(=O)CCc1c(C)nc2c(c(C)nn2-c2ccc(C)cc2)c1C`, the “hERG current change (%, negative = inhibition) at 10uM” value was -7.71%. For `C=CCOC(=O)COc1cc(C)cc2oc(=O)c3c(c12)CCC3`, the “hERG current change (%, negative = inhibition) at 10uM” value was -44.1%. `COc1ccc(OC)c(C(=O)CCCC(=O)c2cc(OC)ccc2OC)c1` was tested, and the “hERG current change (%, negative = inhibition) at 10uM” value was -1.53%. For `Nc1nncn1C(=O)CCCN1C(=O)c2ccccc2C1=O`, the “hERG current change (%, negative = inhibition) at 10uM” value was 4.44%. With `CCOC(=O)c1nn(-c2ccc(Cl)cc2)c2nc(-c3ccc(C)cc3)c(C#N)c(=O)n12` the “hERG current change (%, negative = inhibition) at 10uM” value was 4.89%. `CC(=O)NN1C(=O)/C(=C2/Sc3ccccc3N2C)SC1=S` was tested, and the “hERG current change (%, negative = inhibition) at 10uM” value was 19.8%. `COC(=O)c1ccc(/C(O)=C(\C#N)c2nc3ccccc3s2)cc1` was tested, and the “hERG current change (%, negative = inhibition) at 10uM” value was 15.4%. In the case of `CC(=O)Nc1ccc(N(C(=O)CNC(=O)c2ccco2)C(C(=O)NCc2ccco2)c2ccccc2)cc1` (stereo not shown), the “hERG current change (%, negative = inhibition) at 10uM” value was 14.4%. For `CCOC(=O)c1sc(NC(=O)c2c(C)nn(Cc3ccccc3)c2C)cc1C`, the “hERG current change (%, negative = inhibition) at 10uM” value was -4.1%. In the case of `CCc1ccc(N(C(=O)c2csnn2)C(C(=O)NC(C)(C)CC)c2ccccn2)cc1` (stereo not shown), the “hERG current change (%, negative = inhibition) at 10uM” value was -54.3%. For `Cn1c(NC(=O)C[n+]2cc(-c3ccc(Cl)cc3)n3c2CCC3)cc(=O)n(C)c1=O.[Cl-]`, the “hERG current change (%, negative = inhibition) at 10uM” value was 11.3%. With `O=C1C(Cl)=C(N2CCC(C(=O)O)CC2)C(=O)c2ccccc21` the “hERG current change (%, negative = inhibition) at 10uM” value was -18.8%. For `Cc1nnc(SCC(=O)Nc2c(Cl)cccc2Cl)[nH]c1=O`, the “hERG current change (%, negative = inhibition) at 10uM” value was 19.7%. With `CC(=O)Nc1ccc(S(=O)(=O)Nc2ccc3c(c2)C(=O)OC3)cc1` the “hERG current change (%, negative = inhibition) at 10uM” value was 17.4%. In the case of `COC(=O)C1=C(C)N(Cc2ccccc2)C(=O)N[C@H]1c1ccccc1`, the “hERG current change (%, negative = inhibition) at 10uM” value was -13.5%. In the case of `O=C(Nc1ccccc1)[C@@H]1CC=C[C@@H]2CCN(C3CCCCC3)C(=O)[C@@H]21`, the “hERG current change (%, negative = inhibition) at 10uM” value was 2.73%. In the case of `CCCCN(C(=O)c1ccc([N+](=O)[O-])s1)c1c(N)n(CC(C)C)c(=O)[nH]c1=O`, the “hERG current change (%, negative = inhibition) at 10uM” value was 5.29%. With `O=C(/C=C/c1cccs1)c1ccc(Br)cc1` the “hERG current change (%, negative = inhibition) at 10uM” value was 7.19%. With `O=C(/C=C/c1ccc(Cl)c([N+](=O)[O-])c1)c1cccnc1` the “hERG current change (%, negative = inhibition) at 10uM” value was -6.3%. `Cc1cccc(CSc2nc3[nH]ncc3c(=O)[nH]2)c1` was tested, and the “hERG current change (%, negative = inhibition) at 10uM” value was -3.96%. `O=C(Nc1ccc(N2C(=O)c3cccc4cccc(c34)C2=O)cc1)c1ccc(N2CCCCC2)c([N+](=O)[O-])c1` was tested, and the “hERG current change (%, negative = inhibition) at 10uM” value was -9.73%. In the case of `Cc1ccc(C2CC(=O)NC(SCCC(C)C)=C2C#N)cc1` (stereo not shown), the “hERG current change (%, negative = inhibition) at 10uM” value was -10.6%. With `COc1ccc(CN(C)C2CCCCC2)c(C)c1C` the “hERG current change (%, negative = inhibition) at 10uM” value was -28.4%.

From PMC4336329 (PLoS ONE, 2015)
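Also: peak tail current of the secondary pulse compared with the same well before compound.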
